In the supplement of paper PMC3334620:
Over roughly 33,000 sequences, “E-score (-0.5 to 0.5)” has its median near -0.01; the highest 2% begin near 0.26. This is one part of the list.

What follows are sequences tested against Ste12 (UniProt P13574) (assay: PBM E-score (8-mer binding enrichment) (E-score (-0.5 to 0.5)); higher = stronger / more preferred TF binding; most listed sequences are background and not binding sites). Conditions: protein concentration: 200 nM; construct: GST-DNA-binding domain.
How it was run: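 Yeast transcription factors, full-length or as DNA-binding domains, were expressed with a GST tag using PURExpress in vitro transcription/translation. At about 100-200 nM they were applied to universal all-10-mer Agilent arrays, double-stranded by primer extension on fresh or once-stripped slides. Fluorescent anti-GST detected bound protein, and masliner normalised the scans. E-scores for ungapped eight-base words, pooled with reverse complements, came from the Universal PBM Analysis Suite.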

Sequence	PBM E-score
CCTTAAAA	0.162
ATCCATAG	-0.0969
AGTCTATG	-0.205
ATCAAGCA	0.0192
TATGACGA	0.0384
CTGCGGTC	-0.0632
GAAAGCCC	0.00308
ATGAAGAA	0.168
GCTCATAC	-0.244
GAATTCTC	0.262
AGAGCCCA	-0.184
GATCCACC	-0.144
AACGTGGT	-0.0847
ATACTGGC	-0.161
CCATCGGG	-0.131
AGGTGCAG	-0.0129
AGTTGTGC	-0.00131
CCGATTCC	0.0929
GGCTGGTA	-0.142
AAAGTGAA	0.19
AGACGGAA	0.0863
ACGAATTA	-0.0187
TCCCTAAA	0.00792
GAGTATAA	0.104
AACGGTTG	0.0246

Sequence	PBM E-score
ATTCGGGC	-0.132
CTACTCAC	0.0346
ACTCCACA	0.067
CGGATGGC	0.0109
ACATTTTA	0.194
GCGTTCGA	-0.0414
CTAGATTC	0.0461
CTAACTCA	-0.122
ATCGAACA	0.0732
ACCAAAGG	-0.192
CGTTTTAA	0.319
GCGCGGAC	0.106
GTAATTTA	0.223
CCCTGGTC	-0.294
CCCAATGC	-0.288
ACCTGAAT	0.173
CGAAGCGA	-0.113
AAACTCAA	0.178
ATGTTTCC	0.178
CGTGGGTC	-0.148
AGAGGGAC	-0.183
ACAGCAGT	0.0122
CGGGCGGC	0.0697
GCCAGAGC	-0.17
AGCCCAAA	0.134

Sequence	PBM E-score
GGCGCAAA	0.218
CCCGCCAA	0.0301
AACCCGAC	0.177
CAATCTCC	-0.00169
CCTGGTGA	-0.00979
AAGTGACT	-0.0161
CCCTGTAG	-0.0895
AGACGTCC	-0.131
ATCTGAAA	0.364
CACCGGGG	-0.0742
GATACTGC	0.00414
CTAATGGC	-0.0156
ATTCACTG	0.0226
AGCGTGCA	-0.0443
ATAGGCCA	-0.117
CACTCGCA	-0.0217
AAAACTCT	-0.0402
CGGTGGGA	0.033
CCCACAAC	-0.0103
CCGTTTTA	0.304
CCAATTGG	-0.04
ACATAGTG	-0.0743
GACTAACC	-0.0916
GCTGCTTA	-0.116
CACTCAAC	0.104

Sequence	PBM E-score
GGTGGATA	0.14
TAGATAAA	0.148
ACGAAACG	0.31
AAACCACA	0.188
AGAGCTTC	-0.179
AGGTCCTG	-0.121
CGCTCGAA	-0.0852
GACAAGTA	0.0281
ACAAACCG	0.0902
GCCTACGA	-0.059
ACCACGCC	-0.231
TCGACCGA	-0.0399
GTATCGTA	0.0508
AACGCAAG	-0.106
CGAATAAG	0.0673
CAACACGA	0.0671
CAAGTCCA	-0.323
CGGCCCGA	0.078
CAACCCCC	-0.0908
CACATTCA	0.125
CCAAAAAC	0.216
AGATCTCG	-0.00741
AATCAGTC	-0.0965
CAGACCGC	0.0129
ACTATCAG	0.172

Sequence	PBM E-score
ATGCTAGC	-0.0358
AGTACTGA	-0.0437
CAATTGGA	-0.0538
ATGGTTTC	0.28
ACCGGGCG	0.00867
TAAGTCAA	-0.0556
GACAATCC	0.0451
CTTATAGA	0.116
ACCATTGA	-0.0371
AAGCAAGA	0.165
TTGGAAAA	0.177
AGGCAATA	-0.0873
CTTGGGTC	-0.176
ACGGGGAT	0.0745
AACGAATA	0.0425
CACCCTCG	-0.0491
GCAGTAGC	-0.239
CAAACTGG	0.0658
GAGGTCCA	-0.0294
ACGCGAGC	-0.151
AGGCGCCT	0.116
ATGAGAAG	-0.0707
AGCTGTTG	-0.0338
TCGAGTAA	0.0655
CCACATGG	-0.218

Sequence	PBM E-score
CACGTGTA	-0.109
GACATCTA	0.149
AGGAGAAG	-0.133
CTTGTCAA	-0.0591
AATAATAT	0.185
AGCCATTC	-0.0872
AGTACGAC	-0.00866
CAGCCATA	-0.00901
CACAGAAC	-0.0884
GTGTCTCA	0.338
CTAGGGAC	-0.0587
AAGTCTGA	-0.0887
CGAGGCCG	-0.158
ACTAGACA	0.00326
CGTAGATC	0.0235
ATCTAATA	0.0563
CCCCATCA	0.106
CAGCTATC	-0.199
CGTCCTAG	-0.0716
AAAGACTA	0.0494
TATTGTGA	0.113
AGCTTCGC	-0.238
CAAGGGAG	-0.0603
AAGCCGGT	0.0896
GCGGGAGC	-0.108

Sequence	PBM E-score
ATGTATGC	-0.00107
CCGTACGC	-0.148
ATCCCCAT	0.115
CTTTCCTC	-0.157
GCGACCCA	0.0675
AATCCTAT	0.057
CCAGGTTC	-0.111
CCCAATCC	0.00699
CCATCAGC	-0.133
GGAGACAA	0.0365
CAAAGGTG	0.141
GGCCAGCA	-0.148
CCCCCCGC	-0.154
GGCAGGCC	-0.305
GCTGTGCA	-0.194
AGAATAGG	0.0724
AAAACGAC	0.0623
ATGCAGCG	-0.042
ATGATCCG	0.0627
AGTGGTAC	-0.149
CCTGCCAG	-0.19
ACGTTCCG	-0.00647
